Results as given in article PMC4336329 (PLoS ONE, 2015).
Screen size: about 310,000 compounds; about 2,200 (0.71%) showed an effect of 50% or more. Effects have a minus sign here. Some of the results follow.

Molecular target: human ether-à-go-go-related gene (hERG) potassium channel (human, UniProt Q12809)
Assay: primary screen, population patch clamp on CHO cells stably expressing hERG

Sequence of human ether-à-go-go-related gene (hERG) potassium channel (Q12809 whole entry, looked up): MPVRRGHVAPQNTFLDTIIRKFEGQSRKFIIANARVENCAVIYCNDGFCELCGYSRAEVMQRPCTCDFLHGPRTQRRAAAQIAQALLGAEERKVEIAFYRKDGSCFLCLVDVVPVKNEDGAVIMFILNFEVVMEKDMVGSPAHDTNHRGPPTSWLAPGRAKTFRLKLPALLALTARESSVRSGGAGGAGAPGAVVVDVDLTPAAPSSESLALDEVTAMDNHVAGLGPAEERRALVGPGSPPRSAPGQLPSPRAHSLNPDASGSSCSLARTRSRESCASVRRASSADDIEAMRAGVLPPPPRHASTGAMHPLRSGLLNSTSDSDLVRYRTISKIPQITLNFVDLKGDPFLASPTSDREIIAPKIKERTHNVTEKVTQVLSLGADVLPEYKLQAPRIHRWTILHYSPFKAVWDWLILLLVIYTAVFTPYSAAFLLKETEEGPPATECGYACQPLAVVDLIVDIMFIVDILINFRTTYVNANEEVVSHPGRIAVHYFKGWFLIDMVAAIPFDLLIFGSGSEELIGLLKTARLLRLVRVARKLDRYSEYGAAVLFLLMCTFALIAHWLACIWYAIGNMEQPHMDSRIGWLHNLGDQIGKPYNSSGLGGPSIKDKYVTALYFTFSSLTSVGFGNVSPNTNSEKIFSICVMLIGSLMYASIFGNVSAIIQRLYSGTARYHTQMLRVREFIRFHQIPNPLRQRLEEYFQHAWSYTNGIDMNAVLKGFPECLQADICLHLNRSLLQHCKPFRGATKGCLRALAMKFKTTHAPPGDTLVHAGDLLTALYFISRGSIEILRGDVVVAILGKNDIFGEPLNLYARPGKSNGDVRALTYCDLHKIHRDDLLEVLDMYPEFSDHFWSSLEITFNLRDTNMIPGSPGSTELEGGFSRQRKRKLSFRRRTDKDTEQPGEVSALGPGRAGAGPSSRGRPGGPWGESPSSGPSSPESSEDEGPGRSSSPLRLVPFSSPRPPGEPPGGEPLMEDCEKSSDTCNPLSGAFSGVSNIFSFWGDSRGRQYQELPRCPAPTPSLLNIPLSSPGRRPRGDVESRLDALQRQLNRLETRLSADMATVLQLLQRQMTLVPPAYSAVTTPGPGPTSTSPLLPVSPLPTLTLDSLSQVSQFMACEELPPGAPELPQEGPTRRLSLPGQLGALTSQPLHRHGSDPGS

Row | SMILES | hERG current change (%, negative = inhibition) at 1uM
1 | CCOP(=O)(OCC)C(NC(=O)CN1C(=O)c2ccccc2S1(=O)=O)C(Cl)(Cl)Cl (centres unmarked) | 12.8%
2 | N#CCC(=O)N/N=C/c1ccc(N2N=C(c3ccccc3)CC2c2ccccc2)cc1 (centres unmarked) | 22.5%
3 | Cc1ccc(OC(C)C(=O)Nc2ccc(S(=O)(=O)Nc3nccs3)cc2)cc1 (centres unmarked) | -8.26%
4 | COc1cccc(N/C(SCc2ccccc2F)=C(/C#N)C(=O)NCc2cccs2)c1 | 12.6%
5 | CCN(C(=O)COC(=O)/C=C/c1cccc(Cl)c1)c1c(N)n(Cc2ccccc2)c(=O)[nH]c1=O | 10.6%
6 | Cc1cc(N2CCOCC2)nc2ccc(NC(=S)NCc3ccc4c(c3)OCO4)cc12 | -4.82%
7 | O=C(O)c1ccccc1OCCN1CCCC1=O | 15.3%
8 | CCC(C)(C)C1CCc2[nH]nc(C(=O)NCCNC(=O)OC(C)(C)C)c2C1 (centres unmarked) | 17.2%
9 | COc1ccc(OC)c2nc(-c3cccnc3)ccc12 | 14.2%
10 | O=C(NC1CC1)C1=COCCO1 | 8.61%
11 | N#Cc1ccccc1OCC(=O)NCC(c1cccs1)N1CCOCC1 (centres unmarked) | 1.97%
12 | Cc1ccccc1NC1=NCCCS1 | 10.7%
13 | CNC(=S)N(Cc1ccc(OC)cc1)C1CC(=O)N(c2ccc(C(=O)OC)cc2)C1=O (centres unmarked) | 3.68%
14 | CC[C@H](C)[C@H](NC(=O)c1ccc(Cl)cc1)C(=O)OCC(=O)c1ccc2c(c1)NC(=O)CO2 | -7.29%
15 | O=C(COc1ccccc1)N1CCN(S(=O)(=O)Cc2ccccc2)CC1 | -4.11%
16 | COc1ccc(CC(=O)NNC(=O)CSc2ccc(C)cc2)cc1 | 4.73%
17 | CCC(=O)N=c1ccn(C2=Nc3ccccc3NC2=C(C#N)C#N)cc1 | 1.24%
18 | CCC1CCCCN1CCCNC(=O)c1ccc(CS(=O)(=O)c2ccc(Br)cc2)o1 (centres unmarked) | 0.453%
19 | CCOC(=O)Cc1nnc(Nc2ccc(C)cc2)c2ccccc12 | 5.16%
20 | Cn1c(/C(C#N)=C(\O)c2ccc(Br)s2)nc2ccccc21 | 7.96%
21 | NC(=O)C1CCN(CC(=O)Nc2ccccn2)CC1 | 8.36%
22 | O=C(Nc1cnn(Cc2ccc(Cl)cc2)c1)C1CCCC1 | -7.77%

Row | SMILES | hERG current change (%, negative = inhibition) at 1uM
23 | Cc1cccc(C)c1NC(=O)C(=O)NCC1CCCN1S(=O)(=O)c1cccs1 (centres unmarked) | 12%
24 | COc1ccc(Oc2ccc(C(F)(F)F)cc2NC(=O)c2ccc(F)cc2)cc1 | 9%
25 | CCOC(=O)C1(C)C=C(Nc2ccc(O)cc2)C(=O)N1c1ccc(O)cc1 (centres unmarked) | 6.39%
26 | COC(=O)C1=C(C)N(c2ccc(C)c(C)c2)/C(=C/c2ccco2)C1=O | 6.25%
27 | COc1ccccc1C1CN(c2ccccc2)N=C1c1cccs1 (centres unmarked) | 10.5%
28 | C/C(=N\NC(=O)c1ccc(CN2CCOCC2)cc1)c1ccc([N+](=O)[O-])cc1 | 10%
29 | CCOC(=O)C1(CCc2ccccc2)CCN(C(=O)C2=C(C)OCCO2)CC1 | 1.82%
30 | COc1ccc(-c2cn[nH]c2N)c(OC)c1 | -4.39%
31 | O=C(NCCc1cccs1)C1CC(c2ccccc2F)=NO1 (centres unmarked) | 11.3%
32 | CCc1cc2c(=O)[nH]c(Cc3ccccc3)nc2s1 | 4.42%
33 | O=C(N/N=C/c1ccncc1)c1cnccn1 | 6.26%
34 | CN(C(=O)COC(=O)c1ccccc1OCc1ccc(Cl)cc1)c1c(N)n(Cc2ccccc2)c(=O)[nH]c1=O | 19.8%
35 | CCN(CC)S(=O)(=O)c1ccc(N2CCCCC2)c(NC(=O)C2CCN(C(=O)c3ccc(F)cc3)CC2)c1 | 17.4%
36 | Cc1cccc(OP(=O)(Oc2cccc(C)c2)OC(c2ccccc2)C(F)(F)F)c1 (centres unmarked) | 12.1%
37 | CCOc1ccc(C(=O)CN2CCN(S(=O)(=O)c3ccc(OC)cc3)CC2)cc1 | -33.4%
38 | Cc1ccc2nc(N3CCN(C)CC3)c(C#N)cc2c1 | -10%
39 | Cn1c(=O)cc(SCC(=O)N2CCCC2)c2ccccc21 | 9.79%
40 | COc1ccccc1/C=C1\SC(=S)N(CCC(=O)Nc2cccc(O)c2)C1=O | 13.1%
41 | CC1=NN(C(=O)Cc2ccc([N+](=O)[O-])cc2)C(O)(c2cccnc2)C1 (centres unmarked) | -11%
42 | CCOc1ccc(OCCCC(=O)N2CCN(S(=O)(=O)c3ccc(Cl)cc3)CC2)cc1 | 12.5%
43 | COc1cc(CN2CCNC(=O)C2CC(=O)NC2CCC2)cc(OC)c1 (centres unmarked) | 15.7%
44 | Cc1ccc(CSCCNC(=O)c2cccc([N+](=O)[O-])c2)cc1 | -13.8%
